These results are taken from PMC4336329 (PLoS ONE, 2015).

About 2,200 (0.71%) of roughly 310,000 compounds showed an effect of 50% or more. Effects have a minus sign here. This is one part of the list.

human ether-à-go-go-related gene (hERG) potassium channel, sequence (Q12809 whole entry, looked up): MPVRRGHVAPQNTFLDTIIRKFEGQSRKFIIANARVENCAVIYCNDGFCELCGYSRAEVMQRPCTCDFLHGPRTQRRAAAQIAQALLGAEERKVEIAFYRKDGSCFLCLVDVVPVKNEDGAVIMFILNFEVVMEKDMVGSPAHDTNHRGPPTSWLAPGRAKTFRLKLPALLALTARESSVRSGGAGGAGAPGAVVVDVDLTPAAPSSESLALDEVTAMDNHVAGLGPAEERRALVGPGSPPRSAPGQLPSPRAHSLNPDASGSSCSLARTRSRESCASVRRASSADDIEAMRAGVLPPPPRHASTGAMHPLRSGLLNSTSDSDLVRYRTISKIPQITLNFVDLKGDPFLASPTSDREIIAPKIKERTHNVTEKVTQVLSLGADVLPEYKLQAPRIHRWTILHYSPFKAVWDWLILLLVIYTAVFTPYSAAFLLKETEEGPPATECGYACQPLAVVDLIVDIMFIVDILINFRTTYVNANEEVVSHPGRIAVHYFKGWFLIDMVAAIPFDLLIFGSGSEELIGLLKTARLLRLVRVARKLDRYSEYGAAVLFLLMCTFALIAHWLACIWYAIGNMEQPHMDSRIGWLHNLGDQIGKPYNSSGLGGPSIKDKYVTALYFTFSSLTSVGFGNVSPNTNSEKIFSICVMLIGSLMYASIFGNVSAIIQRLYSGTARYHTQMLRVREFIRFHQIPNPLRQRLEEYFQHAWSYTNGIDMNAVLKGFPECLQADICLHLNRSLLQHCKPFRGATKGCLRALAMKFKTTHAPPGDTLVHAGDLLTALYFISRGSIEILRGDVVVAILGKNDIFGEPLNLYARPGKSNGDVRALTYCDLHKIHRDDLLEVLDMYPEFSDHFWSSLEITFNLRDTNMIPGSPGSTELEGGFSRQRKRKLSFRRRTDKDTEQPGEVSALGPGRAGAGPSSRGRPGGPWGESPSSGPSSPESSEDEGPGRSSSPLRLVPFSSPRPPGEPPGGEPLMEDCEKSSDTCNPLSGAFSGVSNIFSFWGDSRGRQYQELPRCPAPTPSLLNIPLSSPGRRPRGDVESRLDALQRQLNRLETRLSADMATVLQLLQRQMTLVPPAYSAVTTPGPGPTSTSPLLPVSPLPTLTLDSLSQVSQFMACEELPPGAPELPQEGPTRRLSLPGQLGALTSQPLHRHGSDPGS

The assay concerns the target human ether-à-go-go-related gene (hERG) potassium channel (human, UniProt Q12809). In words: primary screen, population patch clamp on CHO cells stably expressing hERG.
For `COc1ccc(NC(=O)c2cc(S(=O)(=O)Nc3ccc(OC)cc3)cs2)cc1`, the “hERG current change (%, negative = inhibition) at 1uM” value was determined as 6.33%. On to `CCC(c1nnnn1CCOC)N1CCN(c2cccc(C(F)(F)F)c2)CC1.Cl` (stereo not shown), for which the “hERG current change (%, negative = inhibition) at 1uM” value was 8.44%.

For `Cc1noc(C)c1COc1cccc(C(=O)OC(C)C#N)c1` (stereo not shown), the “hERG current change (%, negative = inhibition) at 1uM” value is reported as -0.615%. Turning to `Cc1ccc2c(c1)N(CC(=O)NCCCN1CC(C)CC(C)C1)C(=O)c1cccnc1O2` (stereo not shown), the “hERG current change (%, negative = inhibition) at 1uM” value is 6.81%. Under `COC(=O)c1cc(OC)c(OC)cc1NC(=S)Nc1cccc(C(C)=O)c1` stands 16.5%. The result for `COc1ccc(CN2CCCCCC2)c(C)c1C` reads -4.27%; that for `Cc1ccc(CS(=O)(=O)CCC(=O)NCCC2=CCCCC2)cc1`, 17.9%. The result for `O=C(Nc1cccc2ccccc12)NC1CCS(=O)(=O)C1` (stereo not shown) reads 18.3%; that for `COC(=O)c1ccc(N2CCN(CC(=O)c3ccc(-c4ccccc4)cc3)CC2)c([N+](=O)[O-])c1`, 13.2%.

With `COc1ccc(-n2nnnc2Sc2ccc(S(=O)(=O)N3CCOCC3)cn2)cc1`, the “hERG current change (%, negative = inhibition) at 1uM” value is on record as 7.98%. Under `COc1ccccc1NS(=O)(=O)c1cccc(NC(=O)Nc2cccc(Cl)c2)c1` stands 4.06%; under `Cc1ccc2oc(C(=O)Nc3nnc(C)s3)c(C)c2c1`, 6.82%; under `O=C(CNC(=O)c1ccccn1)N/N=C/c1ccc2c(c1)OCO2`, 2.26%. With `O=C(CN1C(=O)c2cccnc2Oc2ccc(Cl)cc21)NCCc1ccccc1`, the “hERG current change (%, negative = inhibition) at 1uM” value came to 2.5%. The result for `Cc1ccc2c(CC(=O)NC3=NCCS3)coc2c1` reads 7.23%; that for `Oc1ccccc1N=Cc1sc2ccccc2c1Cl`, 0.441%. The result for `Cc1ccc2c(c1)Cc1nc3ccccc3nc1-2` reads -8.19%.

`O=C(C1=C[C@@H](c2csc3ccccc23)C[C@@H](OCc2ccc(CO)cc2)O1)N1CCN(Cc2ccccc2)CC1`: the “hERG current change (%, negative = inhibition) at 1uM” value was found to be 11.2%. The result for `CC(C)CN(CC(C)C)C(=O)CN1c2cccc3cccc(c23)S1(=O)=O` reads 17.9%. The result for `Cc1cccc(CCNC(=O)c2cccc3c2C(=O)N(C2CCCCC2)C3)c1` reads 6.77%. The result for `Cc1csc(CNC(=O)CC2C(=O)NCCN2Cc2ccc(F)cc2Cl)n1` (stereo not shown) reads 2.69%. Consider `Cc1cc(NC(=O)CSc2nc(N)c(NC(=O)c3ccco3)c(=O)[nH]2)no1`, for which the “hERG current change (%, negative = inhibition) at 1uM” value is 14.2%. Turning to `COc1ccc(C)cc1NC(=O)c1sc2ncn(CC(=O)N3CCCCC3)c(=O)c2c1C`, the “hERG current change (%, negative = inhibition) at 1uM” value is reported as 12%. The result for `COc1cccc(OC(C)c2ccnc3nc(/N=C/N(C)C)nn23)c1` (stereo not shown) reads 12%; that for `COCCCNc1ncnc2ccc(C)cc12`, 13.4%; that for `COc1ccc(Nc2oc(-c3ccc(Cl)cc3)nc2C#N)cc1`, 9.41%. The result for `Cc1noc(C)c1COC(=O)C1(c2cccc(F)c2)CCCC1` reads 12.1%; that for `Cc1ccc2c(c1)c1c(n2CC(O)CN2C(=O)CNC2=O)C(=O)CCC1` (stereo not shown), -9.64%; that for `Cc1onc(-c2ccccc2)c1C(=O)N(CC(C)C)c1c(N)n(CC(C)C)c(=O)[nH]c1=O`, 1.54%. The result for `O=C(CCc1c[nH]c2ccccc12)NCCc1ccc2c(c1)OCCO2` reads 12%; that for `CCC(C)c1ccc(OCCn2ccnc2)cc1.O=C(O)C(=O)O` (stereo not shown), 1.76%. `Cc1ccccc1C(=O)N[C@H](C(=O)Nc1ccc(Cl)c(Cl)c1)C(C)C`: the “hERG current change (%, negative = inhibition) at 1uM” value turned out to be 14.7%. In the case of `N#C/C(=C\c1cccc(Oc2ccccc2)c1)C(=O)N1CCOCC1`, the “hERG current change (%, negative = inhibition) at 1uM” value worked out at 9.1%.

As for `COC(=O)C1=CN(CC2CCCO2)C=C(C(=O)OC)C1c1cc(OC)c(OC)c(OC)c1` (stereo not shown), the “hERG current change (%, negative = inhibition) at 1uM” value is 4.28%. The result for `O=C(NNC(=O)c1ccc(Br)s1)c1cccc(S(=O)(=O)N2CCCC2)c1` reads 5.4%; that for `COc1cccc(C(=O)Nc2ccc3nc(N4CCN(c5ncccn5)CC4)cc(C)c3c2)c1OC`, -4.55%. The result for `Cc1cccc(N2CCN(S(=O)(=O)c3c(C)[nH]c(C)c3C(=O)N3CCCC3)CC2C)c1` (stereo not shown) reads -15.9%; that for `NC(=O)c1ncc(C(F)(F)F)cc1Cl`, 14.1%; that for `c1ccc(-n2cc(CN3CCC(N4CCOCC4)CC3)c(-c3ccc4c(c3)OCO4)n2)cc1`, 11.1%. The result for `COc1ccccc1N1CCN(C(=O)c2ccc3c(c2)NC(=O)C(CSCc2ccccc2C)N3)CC1` (stereo not shown) reads 16.4%. Regarding `CCOC(=O)Cn1nc(C)c(NC(=O)CCc2ccccc2)c1C`, the “hERG current change (%, negative = inhibition) at 1uM” value is given as 9.68%. The result for `Cc1cc(NC(=O)CSC2=NS(=O)(=O)c3cc(F)ccc3N2)no1` reads 6.52%; that for `O=C(O)/C=C/C(=O)Nc1ccccc1-c1ccccc1`, 3.52%. Take `O=C(Nc1ccc(CN2CCOCC2)cc1)c1ccc(-c2ccc(Cl)cc2Cl)o1`: the “hERG current change (%, negative = inhibition) at 1uM” value came to 6.91%. Take `Cn1c(SCC(=O)Nc2ccccc2)nnc1-c1ccc(NC(=O)CCc2ccccc2)cc1`: the “hERG current change (%, negative = inhibition) at 1uM” value is given as 6.68%. Under `COc1ccc(-n2nc(C(=O)NCC(=O)N3CCC(C)CC3)c3ccccc3c2=O)cc1Cl` stands 11%. The result for `COc1ccccc1NC(=O)CN1CCN(Cc2ccccc2)CC1` reads -45.8%; that for `COc1ccc(OC)c(NC(=O)CCNS(=O)(=O)c2ccc3c(c2)oc(=O)n3C)c1`, 2.95%.

As to `Cc1ccc(Nc2c(-c3cccnc3)nc3ccc(Br)cn23)cc1`, the “hERG current change (%, negative = inhibition) at 1uM” value is reported as -16%. The result for `Cc1cccc(NC(=O)C[n+]2ccc(N(C)C)cc2)c1.[Cl-]` reads 12.4%; that for `O=C(CN1C(=O)C2C3C=CC(C4CC34)C2C1=O)Nc1cccc2ncccc12` (stereo not shown), 8.97%. Under `CN1C(=O)OC(C)(CCc2ccccc2)C1(C)O` (stereo not shown) stands 9.42%; under `CC(=O)Nc1c(Cl)cnn(-c2ccccc2)c1=O`, 8.8%. Under `Cc1nn(C(=O)CCCn2cc([N+](=O)[O-])cn2)c(C)c1Cl` stands -11.9%; under `O=C(Cn1c2ccc(F)cc2c2nc3n(c(=O)c21)CCS3)Nc1ccccc1C(F)(F)F`, 6.84%. `COC(=O)c1cc(S(=O)(=O)N2CCN(c3ccc(F)cc3)CC2)c[nH]1`: the “hERG current change (%, negative = inhibition) at 1uM” value stood at 29.8%. On to `O=C(CN1C(=O)CSC1=O)N1CCc2ccccc2C1`, for which the “hERG current change (%, negative = inhibition) at 1uM” value is reported as 9.82%.

On to `COc1cccc(-n2c(SCC(N)=O)nnc2-c2ccncc2)c1`, for which the “hERG current change (%, negative = inhibition) at 1uM” value is recorded as 14.3%. With `CC1(C)CC(=O)C=C(Nc2ccccc2O)C1`, the “hERG current change (%, negative = inhibition) at 1uM” value amounted to 16.7%.

With `CC1CC(C)CN(c2nc3c(c(=O)n(C)c(=O)n3C)n2CCSc2ncccn2)C1` (stereo not shown), the “hERG current change (%, negative = inhibition) at 1uM” value is -2.55%. Take `S=C(Nc1ccccc1)N1CCN(c2ccccn2)CC1`: the “hERG current change (%, negative = inhibition) at 1uM” value was 12.8%. Under `O=Cc1cccc(OCc2cccc3ccccc23)c1` stands 10.6%; under `COc1ccc(N(C(=O)Nc2ccc(Cl)cc2)C2=NCCC2)cc1`, 10.7%. Under `O=C(O)CN=C(NS(=O)(=O)c1ccc(Cl)cc1)c1ccccc1` stands 2.51%; under `CCOc1cccc(/C=C(\C#N)C(=O)NC2CC2)c1`, 8.33%. Turning to `C=C1CCC[C@]2(C)C[C@H]3OC(=O)C(CN4CCCCC4CO)[C@H]3CC12` (stereo partly shown), the “hERG current change (%, negative = inhibition) at 1uM” value was 12%. Consider `O=C(O)CC12CC3CC(C1)CC(n1ncc(NCc4ccc(F)cc4Cl)c(Cl)c1=O)(C3)C2`, for which the “hERG current change (%, negative = inhibition) at 1uM” value is 4.72%. The result for `CCC(CC)CN1C(N(C)C)=NC[C@@H]1CC(C)C` reads 7.66%. The result for `COc1ccc(C(c2sc3nc(C)nn3c2O)N2CCC(O)CC2)cc1OC` (stereo not shown) reads 18%. Under `O=[N+]([O-])c1ccc(N2CCCCC2)cn1` stands 13.9%; under `CCC(C(=O)N1CCc2ccccc2C1)n1nc(C)n2c(cc3occc32)c1=O` (stereo not shown), -0.0213%; under `Cc1ccc(CC(=O)CCc2ccccc2)cc1`, 16.9%. On to `O=C(Cc1ccc(Cl)cc1)NC(=S)Nc1ccccc1O`, for which the “hERG current change (%, negative = inhibition) at 1uM” value came to 13.4%.

Take `O=C(NCC(c1ccco1)N1CCN(c2ccc(F)cc2)CC1)OCc1ccccc1` (stereo not shown): the “hERG current change (%, negative = inhibition) at 1uM” value amounted to 8.32%. Consider `CSCc1ccc(C(=O)N2CCC(N3CCC(C(=O)NC(C)C)CC3)CC2)o1`, for which the “hERG current change (%, negative = inhibition) at 1uM” value stood at 10.3%. The result for `Cc1nonc1OCCn1nnnc1N` reads 18.9%. Under `CC(=O)N1CCN(c2ccccc2NC(=O)c2cccc3c(Cl)cccc23)CC1` stands 9.13%; under `COc1cc(OC)cc(-c2c(-c3cccs3)c3cc(-c4ccc(OC)c(OC)c4)ccc3n2C)c1`, 15.8%.

With `CC1=NNC(=O)C1CC(=O)N/N=C/C=C/c1ccccc1` (stereo not shown), the “hERG current change (%, negative = inhibition) at 1uM” value was 23.1%. Under `Cc1ccccc1C1C(C#N)=C2N=C(N)c3c(sc4c3CCCCC4)N2C2=C1C(=O)CC(C)(C)C2` (stereo not shown) stands 11.7%; under `C=CCSc1nnc(NC(=O)C2CSC3(C)CCC(=O)N23)s1` (stereo not shown), 1.66%; under `CCOC(=O)N1CCN(C(=O)COc2ccc(S(=O)(=O)NC(C)C)cc2)CC1`, 9.95%. Under `CC(C)Nc1nc(NC(C)C)nc(N(C)C(N)=O)n1` stands 7.45%. The result for `Cc1cc(C)nc(-n2ncc3c2CC(c2ccc(F)cc2)CC3=O)n1` (stereo not shown) reads 12.7%.

In the case of `Cc1ccc(C)n1NC(=O)c1ccccc1[N+](=O)[O-]`, the “hERG current change (%, negative = inhibition) at 1uM” value worked out at 15.9%. The result for `CCOC(=O)c1ccc(NC(=O)CCSCCc2ccccn2)cc1` reads 12%; that for `CCc1ccc(N(CC)C(=O)c2cn(C)c(=O)c3ccccc23)cc1`, 5.72%.

`COc1ccc(C(=O)NC2CCN(C(=S)Nc3ccc(C)cc3)CC2)cc1`: the “hERG current change (%, negative = inhibition) at 1uM” value was found to be 17.6%.
